From PubChem BioAssay AID2546 (National Center for Advancing Translational Sciences (NCATS), 2010)
About 11,000 (3.5%) of roughly 310,000 compounds were called active. The shares of active, inactive and inconclusive entries below differ from those in the screen. The call rests on the fitted dose curve; in most records, active means well fitted inhibition curve with a large enough effect; inconclusive means small, poorly fitted or top-dose-only effect, or effect the other way; inactive means flat fitted curve, though single readings scatter. No potency is given beside an inconclusive call; the fits are too rough.

Assay: VP16 counterscreen qHTS for inhibitors of ROR gamma transcriptional activity;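 further: Gal4-VP16 expression switched on by copper sulfate through the metallothionein promoter; nearly all actives have a fitted effect of over 50% in size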
Conditions: Drosophila S2 Gal4-VP16 UAS-luciferase, luminescence, 20 h; series mostly up to 53.6 µM
Potency means the concentration at half of the fitted maximal effect; tags describe the fitted curve by direction and shape.

SMILES | Potency
COc1cccc(C(=O)N2N=C(c3ccccc3)CC2(O)C(F)(F)F)c1 (stereo unspecified) | active: 20 µM
Cc1cc(=O)[nH]c(N/N=C/C2=C(N3CCOCC3)C(=C\c3ccc(Cl)cc3)/CC2)n1 | inconclusive [inhibitor, single point]
COC(=O)c1sc(N)c(C(=O)OC)c1COC(=O)c1c(C)noc1C | inactive
CCOc1ccc(-c2nnc(NC(=O)Cc3ccc(OC)cc3)o2)cc1 | active: 4.47 µM
COc1cccc2sc(Nc3nnc(-c4ccc(F)cc4)o3)nc12 | active: 5.01 µM
Cc1ccc2nc(-c3ccc(NC(=O)CN4C(=O)NC(C)(c5ccc(OC(F)F)cc5)C4=O)cc3)sc2c1 (stereo unspecified) | inconclusive [inhibitor, partial curve]
Brc1ccc(-c2csc(N/N=C/c3ccc4c(c3)OCO4)n2)cc1 | inconclusive [inhibitor, single point]
O=C(N/N=C/c1cn(-c2ccccc2)nc1-c1ccc2c(c1)OCCO2)c1ccncc1 | active: 5.01 µM
CCS(=O)(=O)c1ncc(Cl)c(C(=O)Nc2ccc(S(=O)(=O)N(C)c3ccccc3)cc2)n1 | active: 2.82 µM
Cc1ccc(CC(=O)Nc2ncc([N+](=O)[O-])s2)cc1 | inactive
N#C/C(=N\Nc1ccccc1)C(N)=S | inconclusive [inhibitor, single point]
COc1ccc(C2CC(c3cccs3)=Nc3ccccc3S2)cc1OC (stereo unspecified) | inconclusive [activator, partial curve, poor fit]
C/C(=N\NC(=O)COc1ccc(C(C)(C)C)cc1)c1ccc(-n2ccnc2)cc1 | inconclusive [inhibitor, partial curve]
Cc1noc(C)c1CSCC(=O)N1CCN(c2ccc(F)cc2)CC1 | inconclusive [inhibitor, single point]
Nc1nc(CCl)nc(N(c2ccccc2)c2ccccc2)n1 | inactive
Cc1ccc(-c2nnc(NC(=O)c3ccco3)s2)cc1 | inconclusive [activator, full curve]
O=C1c2ccccc2C(=O)N1CCC(c1ccc(F)cc1)c1ccco1 (stereo unspecified) | inactive
Brc1ccc(-c2csc3[n+]2CCCCC3)cc1 | inactive
CC(=O)Nc1ccc(S(=O)(=O)N2CCN(C(=O)N3CCOCC3)CC2)cc1 | inactive
Cc1cc(/C=C2/C(=N)N3C(=NC2=O)SN=C3S(C)(=O)=O)c(C)n1-c1ccccc1 | inconclusive [inhibitor, single point]
C/C(=N\Nc1nc2ccccc2[nH]1)c1ccc2c(c1)OCCO2 | inconclusive [inhibitor, single point]
Cc1ccc(N2C(=O)C(Cl)=C(NCc3ccccc3)C2=O)c(C)c1 | inconclusive [inhibitor, single point]
COc1ccc(N2CCOCC2)c(NC(=O)c2ccc(Br)o2)c1 | inactive
Cc1cc(C)c2cccc(NC(=S)NC(=O)c3ccccc3)c2n1 | active: 3.16 µM

SMILES | Potency
COc1ccc(CN2CCN(CC(O)Cn3c4ccccc4c4ccccc43)CC2)cc1 (stereo unspecified) | inconclusive [inhibitor, single point]
S=C(Nc1ccc(Br)cc1Cl)N1CCCC1 | inactive
CCCNC(=O)COc1ccccc1[N+](=O)[O-] | inconclusive [activator, single point]
CCOC(=O)c1cccc(NC(=O)c2ccc(NC(=O)C3CCCO3)cc2)c1 (stereo unspecified) | inconclusive [inhibitor, full curve]
O=C(COc1ccc(C(=O)c2ccccc2)cc1)NC1CCCCC1 | inconclusive [inhibitor, single point]
O=C(Nc1ccc(Oc2ccc(NC(=O)Nc3ccccc3Cl)cc2)cc1)Nc1ccccc1Cl | inconclusive [inhibitor, partial curve]
Cc1cc(/C=N/NC(=O)c2ccncc2)c(C)n1-c1ccccc1 | inconclusive [inhibitor, single point]
Cc1ccc(-c2nnn(CC(=O)N(CC(=O)NC3CCCCC3)c3ccc(F)c(Cl)c3)n2)o1 | inconclusive [inhibitor, single point]
COC(=O)c1ccc2nc(NC(=O)C3CC3)sc2c1 | inconclusive [inhibitor, single point]
CC(C)c1onc(C(=O)NCc2ccc(Cl)cc2)c1[N+](=O)[O-] | inactive
Cc1ccc(NC(=O)Cc2csc(-c3ccccc3)n2)cc1F | inconclusive [inhibitor, single point]
Cn1cc(Cl)c(C(=O)NC(=S)Nc2sc3c(c2C#N)CCCCC3)n1 | inconclusive [inhibitor, full curve, poor fit]
Cc1ccc(-n2c(C)nc3c(cnn3-c3ccc(F)cc3)c2=O)cc1 | active: 8.91 µM
CCc1ccc(NC(=S)NC2CCN(Cc3ccccc3)CC2)cc1 | inconclusive [inhibitor, single point]
CN(CC(=O)Nc1ccc2c(c1)OCCO2)S(=O)(=O)c1ccc(Br)s1 | inconclusive [inhibitor, single point]
O=C(CSc1ncnc2ccccc12)c1cccs1 | inconclusive [inhibitor, partial curve, poor fit]
Cc1ccc(-n2c(NN)nc3ccccc3c2=O)c(C)c1 | active: 20 µM
COC(=O)C1=C(C#N)NC(C)=C(C(=O)OC(C)C)C1c1cccc([N+](=O)[O-])c1 (stereo unspecified) | inactive
COc1ccc(C(=O)NN/C(C)=C/C(=O)C(F)(F)C(F)(F)C(F)(F)F)cc1 | active: 5.62 µM
COc1cccc(C(=O)NC(=S)Nc2ccc(N(C)C)cc2)c1 | inconclusive [inhibitor, single point]
C/C(=N\NC(=S)NC1CCCCC1)c1ccc(C)o1 | active: 3.55 µM
CSC(=S)N/N=C(\C)c1ccccc1 | active: 4.47 µM
COc1ccc(NS(=O)(=O)c2ccc(N3CCCC3)c(NC(=S)Nc3ccc(SC(F)F)cc3)c2)cc1 | inactive
CC(C)CC(=O)NC(=S)Nc1ccc(N2CCOCC2)cc1 | inconclusive [inhibitor, single point]

SMILES | Potency
CC(C)Oc1ccc(/C=N/NC(N)=S)cc1 | active: 2.82 µM
O=C1C2C(C(=O)N1/N=C/c1ccc([N+](=O)[O-])o1)C1C=CC2C12CC2 (stereo unspecified) | active: 20 µM
Fc1ccc(-c2c[nH]c(=S)n2Cc2ccccc2)cc1 | active: 1.41 µM
Cc1ccc(C(=O)N/N=C/c2cn(Cc3ccccc3)c3ccccc23)cn1 | inconclusive [inhibitor, single point]
COCCNC(=O)CSCc1nc(-c2ccc(SC)cc2)oc1C | inconclusive [inhibitor, partial curve]
NC(=O)c1cc(Cc2ccccc2)sc1NC(=O)c1ccco1 | inconclusive [activator, full curve]
CCn1c(C)nc2cc(C(=O)NNC(=S)Nc3ccc(Cl)cc3Cl)ccc21 | inconclusive [inhibitor, single point]
COc1ccccc1-n1cc(C(=O)NCC(=O)N2CCN(c3ccccn3)CC2)c2ccccc2c1=O | inconclusive [inhibitor, single point]
Cc1cccc(NC(=O)Nc2ccccn2)c1C | inconclusive [activator, partial curve]
CCOC(=O)c1ccc(NC(=O)CSc2nnc(CCc3ccc(C)o3)n2-c2ccccc2)cc1 | active: 14.1 µM
COc1ccccc1CNCC(O)(c1ccc(Cl)cc1)c1ccc(Cl)cc1 | inconclusive [inhibitor, single point]
CC(C)c1nc(=S)c2ccccc2[nH]1 | active: 10 µM
CCOc1cc(/C=N/NC(=O)c2cccc([N+](=O)[O-])c2)ccc1OS(=O)(=O)c1ccccc1 | active: 14.1 µM
COc1ccc(-c2c(C)c3ccc(O)cc3oc2=O)cc1 | inactive
COc1ccc(CN=C(N)N=C(N)N)cc1Cl | inactive
Cc1ccc2nc(-c3ccccc3Cl)cc(C(=O)Nc3cc(C)on3)c2c1 | inconclusive [inhibitor, single point]
Cn1c(=O)c2c(nc(Sc3n[nH]c(N)n3)n2Cc2ccccc2Cl)n(C)c1=O | inconclusive [inhibitor, single point]
Cc1ccc(NC(=O)c2cc(N(C)C)ccc2[P+](=O)O)cc1 | inconclusive [inhibitor, single point]
COc1c2c(cc3oc(=O)ccc13)OC(C)(C)C=C2 | inconclusive [activator, single point]
COC(=O)C1=C(C)N(Cc2ccccc2)C(=S)N[C@H]1CCc1ccccc1 | inconclusive [inhibitor, single point]
COCCNC(=S)N/N=C/c1ccc2c(c1)OCCO2 | inconclusive [inhibitor, single point]
COc1ccccc1NC(=O)CSc1nc2c(sc3ccccc32)c(=O)n1CCN(C)C | inconclusive [inhibitor, single point]
CO[C@H](C(=O)[C@@H](O)[C@@H](C)O)C1Cc2cc3cc(O[C@H]4C[C@@H](O[C@H]5C[C@@H](O)[C@H](O)[C@@H](C)O5)[C@@H](O)[C@@H](C)O4)c(C)c(O)c3c(O)c2C(=O)[C@H]1O[C@H]1C[C@@H](O[C@H]2C[C@@H](O[C@H]3C[C@](C)(O)[C@H](O)[C@@H](C)O3)[C@H](O)[C@@H](C)O2)[C@H](O)[C@@H](C)O1 (stereo partly specified) | active: 0.501 µM
